Source: the supplement of paper PMC11741623
The other results are listed elsewhere or left out. Interaction screen of human proteins with wild-type SARS-CoV-2 proteins by split-DHFR complementation in yeast, 1 µg/mL methotrexate. Value = fitness of the pair (three or more lineages) minus that of the viral protein without a human partner, on a scale set by negative (0) and fused positive (1) controls, mean of up to three cultures; higher = more likely to interact. Active = false discovery rate below 0.05 (one-sided t-test) in at least one culture. Nearly all pairs are not hits, and differences among them are mostly noise (correlation between cultures about 0.3); most hits were seen in one culture only. Human sequences are the Swiss-Prot entries looked up by gene name; the clone may be another isoform. NSP2 values were corrected by the authors for a growth advantage. Listed are human proteins with a hit and a random twelfth of the others.

B1: PRPH2, P23942 (protein)
chain: MALLKVKFDQKKRVKLAQGLWLMNWFSVLAGIIIFSLGLFLKIELRKRSDVMNNSESHFVPNSLIGMGVLSCVFNSLAGKICYDALDPAKYARWKPWLKPYLAICVLFNIILFLVALCCFLLRGSLENTLGQGLKNGMKYYRDTDTPGRCFMKKTIDMLQIEFKCCGNNGFRDWFEIQWISNRYLDFSSKEVKDRIKSNVDGRYLVDGVPFSCCNPSSPRPCIQYQITNNSAHYSYDHQTEELNLWVRGCRAALLSYYSSLMNSMGVVTLLIWLFEVTITIGLRYLQTSLDGVSNPEESESESQGWLLERSVPETWKAFLESVKKLGKGNQVEAEGADAGQAPEAG
B2: PDAP1, Q13442 (protein)
chain: MPKGGRKGGHKGRARQYTSPEEIDAQLQAEKQKAREEEEQKEGGDGAAGDPKKEKKSLDSDESEDEEDDYQQKRKGVEGLIDIENPNRVAQTTKKVTQLDLDGPKELSRREREEIEKQKAKERYMKMHLAGKTEQAKADLARLAIIRKQREEAARKKEEERKAKDDATLSGKRMQSLSLNK
B3: N4BP2L1, Q5TBK1 (protein)
chain: MEDSFLQSFGRLSLQPQQQQQRQRPPRPPPRGTPPRRHSFRKHLYLLRGLPGSGKTTLARQLQHDFPRALIFSTDDFFFREDGAYEFNPDFLEEAHEWNQKRARKAMRNGISPIIIDNTNLHAWEMKPYAVMALENNYEVIFREPDTRWKFNVQELARRNIHGVSREKIHRMKERYEHDVTFHSVLHAEKPSRMNRNQDRNNALPSNNARYWNSYTEFPNRRAHGGFTNESSYHRRGGCHHGY
B4: MSRB3, Q8IXL7 (protein)
chain: MSPRRTLPRPLSLCLSLCLCLCLAAALGSAQSGSCRDKKNCKVVFSQQELRKRLTPLQYHVTQEKGTESAFEGEYTHHKDPGIYKCVVCGTPLFKSETKFDSGSGWPSFHDVINSEAITFTDDFSYGMHRVETSCSQCGAHLGHIFDDGPRPTGKRYCINSAALSFTPADSSGTAEGGSGVASPAQADKAEL

target: SARS-CoV-2 M; test: yeast fitness gain over the viral ORF with no human partner (scaled fitness); higher = more likely to interact
Method: (§1)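 Split mouse DHFR complementation in pooled diploid yeast: human ORFeome clones carry one fragment and viral ORFs the other; barcoded lineages compete in 1 µg/mL methotrexate and fitness is read by barcode sequencing in up to three cultures.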

| Binder | yeast fitness gain |
| --- | --- |
| B1 | inactive: -0.06 |
| B2 | inactive: -0.0322 |
| B3 | inactive: -0.102 |
| B4 | inactive: -0.0689 |

target: SARS-CoV-2 NSP1; test: as above
Method: as §1

| Binder | yeast fitness gain |
| --- | --- |
| B1 | inactive: 0.0168 |
| B2 | inactive: 0.047 |
| B3 | inactive: -0.00576 |

target: SARS-CoV-2 NSP10; test: as above
Method: as §1

| Binder | yeast fitness gain |
| --- | --- |
| B1 | inactive: 0.105 |
| B2 | inactive: -0.0763 |
| B3 | inactive: -0.0303 |
| B4 | inactive: -0.0426 |

target: SARS-CoV-2 NSP12; test: as above
Method: as §1

| Binder | yeast fitness gain |
| --- | --- |
| B1 | inactive: 0.0412 |
| B2 | inactive: 0.0275 |
| B3 | inactive: -0.199 |
| B4 | inactive: 0.0661 |

target: SARS-CoV-2 NSP13; test: as above
Method: as §1

| Binder | yeast fitness gain |
| --- | --- |
| B1 | inactive: -0.21 |
| B2 | inactive: 0.0526 |
| B3 | inactive: -0.107 |
| B4 | inactive: 0.021 |

target: SARS-CoV-2 NSP16; test: as above
Method: as §1

| Binder | yeast fitness gain |
| --- | --- |
| B1 | inactive: -0.000146 |
| B2 | inactive: 0.0328 |
| B4 | inactive: 0.0328 |

target: SARS-CoV-2 NSP2; test: as above
Method: as §1

| Binder | yeast fitness gain |
| --- | --- |
| B1 | inactive: -0.139 |
| B2 | inactive: 0.109 |
| B3 | inactive: -0.21 |
| B4 | inactive: -0.0547 |

target: SARS-CoV-2 NSP5; test: as above
Method: as §1

| Binder | yeast fitness gain |
| --- | --- |
| B1 | inactive: -0.204 |
| B2 | inactive: 0.0292 |
| B3 | inactive: -0.0284 |
| B4 | inactive: -0.0203 |

target: SARS-CoV-2 NSP7; test: as above
Method: as §1

| Binder | yeast fitness gain |
| --- | --- |
| B1 | inactive: 0.114 |
| B2 | inactive: 0.0309 |
| B3 | inactive: -0.00722 |
| B4 | inactive: 0.0799 |

target: SARS-CoV-2 ORF6; test: as above
Method: as §1

| Binder | yeast fitness gain |
| --- | --- |
| B1 | inactive: -0.0845 |
| B2 | inactive: -0.0222 |
| B3 | inactive: 0.019 |
| B4 | inactive: 0.0129 |

target: SARS-CoV-2 ORF7A; test: as above
Method: as §1

| Binder | yeast fitness gain |
| --- | --- |
| B1 | inactive: 0.0393 |
| B2 | inactive: -0.113 |
| B3 | inactive: 0.0621 |
| B4 | inactive: 0.102 |

target: SARS-CoV-2 ORF8; test: as above
Method: as §1

| Binder | yeast fitness gain |
| --- | --- |
| B1 | inactive: -0.021 |
| B2 | inactive: -0.017 |
| B3 | inactive: 0.0105 |
| B4 | inactive: 0.03 |

target: SARS-CoV-2 ORF9B; test: as above
Method: as §1

| Binder | yeast fitness gain |
| --- | --- |
| B1 | inactive: 0.00937 |
| B2 | inactive: -0.00168 |
| B3 | inactive: -0.00482 |
| B4 | inactive: 0.0117 |

target: SARS-CoV-2 ORF9Bwu (the 73-codon ORF); test: as above
Method: as §1

| Binder | yeast fitness gain |
| --- | --- |
| B1 | inactive: -0.131 |
| B2 | inactive: 0.034 |
| B3 | inactive: -0.0446 |
| B4 | inactive: -0.115 |

target: SARS-CoV-2 S; test: as above
Method: as §1

| Binder | yeast fitness gain |
| --- | --- |
| B1 | inactive: -0.14 |
| B2 | inactive: -0.0666 |
| B3 | inactive: -0.0741 |
| B4 | inactive: -0.0399 |

target: SARS-CoV-2 NSP15; test: as above
Method: as §1

| Binder | yeast fitness gain |
| --- | --- |
| B2 | inactive: -0.0128 |
| B4 | inactive: -0.107 |

target: SARS-CoV-2 NSP6; test: as above
Method: as §1

| Binder | yeast fitness gain |
| --- | --- |
| B2 | inactive: 0.00348 |
| B3 | inactive: -0.0653 |
| B4 | inactive: 0.0233 |

target: SARS-CoV-2 NSP8; test: as above
Method: as §1

| Binder | yeast fitness gain |
| --- | --- |
| B2 | inactive: -0.00918 |
| B3 | inactive: -0.0854 |
| B4 | inactive: 0.0368 |

target: SARS-CoV-2 NSP9; test: as above
Method: as §1

| Binder | yeast fitness gain |
| --- | --- |
| B2 | inactive: -0.0079 |
| B3 | inactive: 0.137 |
| B4 | inactive: 0.079 |

target: SARS-CoV-2 ORF10; test: as above
Method: as §1

| Binder | yeast fitness gain |
| --- | --- |
| B2 | inactive: 0.0594 |
| B3 | inactive: -0.0569 |
| B4 | inactive: -0.0468 |

target: SARS-CoV-2 ORF3B; test: as above
Method: as §1

| Binder | yeast fitness gain |
| --- | --- |
| B2 | inactive: -0.0159 |
| B3 | inactive: 0.0209 |
| B4 | inactive: -0.0896 |

target: SARS-CoV-2 ORF7B; test: as above
Method: as §1

| Binder | yeast fitness gain |
| --- | --- |
| B2 | inactive: 0.0463 |
| B3 | inactive: -0.0221 |
| B4 | inactive: 0.054 |

target: SARS-CoV-2 NSP14; test: as above
Method: as §1

| Binder | yeast fitness gain |
| --- | --- |
| B3 | inactive: 0.0234 |

target: SARS-CoV-2 ORF3A; test: as above
Method: as §1

| Binder | yeast fitness gain |
| --- | --- |
| B3 | inactive: -0.0487 |
| B4 | inactive: -0.214 |

target: SARS-CoV-2 N; test: as above
Method: as §1

| Binder | yeast fitness gain |
| --- | --- |
| B4 | inactive: -0.133 |

target: SARS-CoV-2 NSP4; test: as above
Method: as §1

| Binder | yeast fitness gain |
| --- | --- |
| B4 | inactive: -0.0285 |
